{"source": "paper PMC4336329", "about": "(PLoS ONE, 2015)", "note": "About 2,200 (0.71%) of roughly 310,000 compounds showed an effect of 50% or more. Effects have a minus sign here. The list shows a part of the results."}
{"target": "human ether-à-go-go-related gene (hERG) potassium channel (human, UniProt Q12809)", "sequence (Q12809 whole entry, looked up)": "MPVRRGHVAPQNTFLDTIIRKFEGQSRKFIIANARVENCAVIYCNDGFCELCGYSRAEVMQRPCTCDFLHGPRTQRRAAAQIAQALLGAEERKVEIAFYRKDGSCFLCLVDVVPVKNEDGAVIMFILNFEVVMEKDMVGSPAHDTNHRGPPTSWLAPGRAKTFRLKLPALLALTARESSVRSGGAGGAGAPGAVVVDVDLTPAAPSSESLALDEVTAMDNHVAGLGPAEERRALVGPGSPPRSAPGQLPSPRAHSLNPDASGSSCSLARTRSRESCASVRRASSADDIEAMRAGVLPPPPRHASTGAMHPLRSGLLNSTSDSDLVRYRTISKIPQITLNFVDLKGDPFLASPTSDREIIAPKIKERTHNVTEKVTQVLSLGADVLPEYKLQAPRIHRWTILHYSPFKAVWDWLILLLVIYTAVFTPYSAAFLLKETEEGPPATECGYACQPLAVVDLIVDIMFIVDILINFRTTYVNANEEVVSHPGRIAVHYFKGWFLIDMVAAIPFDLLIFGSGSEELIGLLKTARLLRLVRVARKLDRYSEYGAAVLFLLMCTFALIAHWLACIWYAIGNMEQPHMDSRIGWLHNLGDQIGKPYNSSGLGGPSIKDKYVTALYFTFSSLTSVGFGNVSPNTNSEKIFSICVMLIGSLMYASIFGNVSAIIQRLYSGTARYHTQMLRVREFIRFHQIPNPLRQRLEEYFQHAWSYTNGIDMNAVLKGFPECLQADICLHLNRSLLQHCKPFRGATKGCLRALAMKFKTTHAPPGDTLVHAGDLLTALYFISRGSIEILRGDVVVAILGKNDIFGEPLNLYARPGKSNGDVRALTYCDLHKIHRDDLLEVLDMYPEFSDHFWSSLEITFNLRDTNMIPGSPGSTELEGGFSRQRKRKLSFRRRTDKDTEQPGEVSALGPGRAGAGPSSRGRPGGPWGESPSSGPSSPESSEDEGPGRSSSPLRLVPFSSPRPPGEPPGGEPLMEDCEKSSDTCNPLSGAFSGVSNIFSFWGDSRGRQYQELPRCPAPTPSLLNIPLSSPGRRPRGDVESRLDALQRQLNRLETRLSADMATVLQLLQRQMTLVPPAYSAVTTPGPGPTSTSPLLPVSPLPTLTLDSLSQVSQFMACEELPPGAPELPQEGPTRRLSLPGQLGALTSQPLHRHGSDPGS", "test": "primary screen, population patch clamp on CHO cells stably expressing hERG", "units": {"hERG current change (%, negative = inhibition) at 1uM": "%"}}
{"smiles": "Cc1cccc(OCCCC(=O)Nc2ccc(N(C)C)cc2)c1", "hERG current change (%, negative = inhibition) at 1uM": 4.41}
{"smiles": "S=c1[nH]nc(COc2ccccc2)n1/N=C/c1ccc(Cl)c(Cl)c1", "hERG current change (%, negative = inhibition) at 1uM": 10.1}
{"smiles": "CS(=O)(=O)N1CCCC(C(=O)Nc2ccc3c(c2)OCCO3)C1", "note": "(stereo not drawn)", "hERG current change (%, negative = inhibition) at 1uM": 16.2}
{"smiles": "CCOC(=O)c1c(C)[nH]c(C(=O)COC(=O)C2CC2C)c1C", "note": "(stereo not drawn)", "hERG current change (%, negative = inhibition) at 1uM": 2.87}
{"smiles": "CCOC(=O)N1CCN(C(=O)CN(C2CCCCC2)S(=O)(=O)c2ccc(C)cc2)CC1", "hERG current change (%, negative = inhibition) at 1uM": -4.72}
{"smiles": "CC1(C)Oc2ccc(C(=O)NC3CC3)cc2N(CC(=O)N2CCOCC2)C1=O", "hERG current change (%, negative = inhibition) at 1uM": 8.6}
{"smiles": "COCCCNCC(=O)c1c(N)n(Cc2ccccc2)c(=O)n(C)c1=O.O=C(O)C(=O)O", "hERG current change (%, negative = inhibition) at 1uM": 3.64}
{"smiles": "Br.Cc1nc(C)c(-c2csc(Nc3cccc(O)c3)n2)s1", "hERG current change (%, negative = inhibition) at 1uM": 14.3}
{"smiles": "O=C(NCCc1ccccc1)c1ccc(-c2ccc(F)cc2)o1", "hERG current change (%, negative = inhibition) at 1uM": 0.0469}
{"smiles": "O=C(N/C(=C\\c1ccco1)C(=O)N1CCCC1)c1ccccc1", "hERG current change (%, negative = inhibition) at 1uM": 14.4}
{"smiles": "COc1cc(C2CC(=O)Nc3c2c(=O)nc2c(C)cccn32)cc(OC)c1OC", "note": "(stereo not drawn)", "hERG current change (%, negative = inhibition) at 1uM": 17.2}
{"smiles": "COc1ccc(C2=NOC(C(=O)Nc3ccc(C)cc3)C2)cc1OC", "note": "(stereo not drawn)", "hERG current change (%, negative = inhibition) at 1uM": 1.79}
{"smiles": "Cc1cc(-c2ccc(Cl)cc2)n2ncnc2n1", "hERG current change (%, negative = inhibition) at 1uM": 6}
{"smiles": "O=[N+]([O-])c1cccc(NC(=S)N2CCc3ccccc32)c1", "hERG current change (%, negative = inhibition) at 1uM": 14.6}
{"smiles": "COc1ccc(NC(=O)c2cccc(Cl)c2)c[n+]1[O-]", "hERG current change (%, negative = inhibition) at 1uM": 14}
{"smiles": "CCOC(=O)c1sc(=S)n(-c2cccc(C(F)(F)F)c2)c1SC", "hERG current change (%, negative = inhibition) at 1uM": -1.95}
{"smiles": "COc1cccc(-c2c(C(=O)N/N=C/c3cccnc3)nnn2-c2nonc2N)c1", "hERG current change (%, negative = inhibition) at 1uM": 19.9}
{"smiles": "O=C(Cn1nnc2ccccc21)Nc1ccccc1[N+](=O)[O-]", "hERG current change (%, negative = inhibition) at 1uM": 8.72}
{"smiles": "CCN(C(=O)COC(=O)c1cccnc1Nc1ccccc1F)C1CCS(=O)(=O)C1", "note": "(stereo not drawn)", "hERG current change (%, negative = inhibition) at 1uM": 4.96}
{"smiles": "Cn1ccnc1SCC(=O)c1ccc([N+](=O)[O-])cc1", "hERG current change (%, negative = inhibition) at 1uM": -0.216}
{"smiles": "O=C(O)c1ccc(Cl)c(S(=O)(=O)N2CCC(Cc3ccccc3)CC2)c1", "hERG current change (%, negative = inhibition) at 1uM": 20.5}
{"smiles": "Cc1ccc(N(CC(=O)Nc2ccc(C)cc2C)S(=O)(=O)N2CCCC2)cc1", "hERG current change (%, negative = inhibition) at 1uM": 5.51}
{"smiles": "CCc1ccccc1NC(=O)NNC(=O)CCc1ccccc1", "hERG current change (%, negative = inhibition) at 1uM": 14.9}
{"smiles": "Cc1ccc(NC(=O)CCC(=O)c2cccs2)nc1", "hERG current change (%, negative = inhibition) at 1uM": 2.89}
{"smiles": "O=C(NCCN1C(=O)S/C(=C\\c2cccs2)C1=O)c1ccc(=O)[nH]c1", "hERG current change (%, negative = inhibition) at 1uM": 7.58}
{"smiles": "Cc1[nH]c(=O)[nH]c(=O)c1S(=O)(=O)N1CCC(C(=O)NC(C)c2ccccc2)CC1", "note": "(stereo not drawn)", "hERG current change (%, negative = inhibition) at 1uM": 7.35}
{"smiles": "Cc1nc(CSc2ccc(Cl)cc2)cs1", "hERG current change (%, negative = inhibition) at 1uM": 11.8}
{"smiles": "CSc1ncccc1C(=O)Nc1nccs1", "hERG current change (%, negative = inhibition) at 1uM": 5.42}
{"smiles": "CC(=O)Nc1ccc(NC(=O)C2CCCN2C(=O)Nc2ccc(F)cc2)cc1", "note": "(stereo not drawn)", "hERG current change (%, negative = inhibition) at 1uM": 7.48}
{"smiles": "O=C1NC(c2cccc(Cl)c2)Nc2ccccc21", "note": "(stereo not drawn)", "hERG current change (%, negative = inhibition) at 1uM": 13.9}
{"smiles": "Cc1nn(C(=O)c2cc3sccc3[nH]2)c(C)c1C", "hERG current change (%, negative = inhibition) at 1uM": 13.6}
{"smiles": "COCCNC(=S)N1CCOCC1", "hERG current change (%, negative = inhibition) at 1uM": 7.12}
{"smiles": "Cc1cccc(C)c1-n1c(C)nn(CC#N)c1=O", "hERG current change (%, negative = inhibition) at 1uM": 14.2}
{"smiles": "CCn1cc(C(=O)NCC(OC)OC)c(=O)c2cc(S(=O)(=O)N3CCC(C)CC3)ccc21", "hERG current change (%, negative = inhibition) at 1uM": 16.9}
{"smiles": "O=C(c1ccccc1)N1CCN(C(=S)NCc2ccco2)CC1", "hERG current change (%, negative = inhibition) at 1uM": 2.1}
{"smiles": "Cc1ccc(C(=O)N2CCOCC2)cc1S(=O)(=O)N1CCCC1", "hERG current change (%, negative = inhibition) at 1uM": 5.51}
{"smiles": "CCOC(=O)N1CCN(c2cc3[nH]c(=S)[nH]c3cc2F)CC1", "hERG current change (%, negative = inhibition) at 1uM": 16.7}
{"smiles": "COc1cc(-c2nc3ccccn3c2/N=C/c2cc(OC)c(OC)c(OC)c2)ccc1O", "hERG current change (%, negative = inhibition) at 1uM": 1.51}
{"smiles": "CC(C)(C)OC(=O)N1CCC(c2cc(=O)n3[nH]c(-c4ccc(Cl)cc4)cc3n2)CC1", "hERG current change (%, negative = inhibition) at 1uM": 9.1}
{"smiles": "O=C(C1CC(=O)N(c2ccc(Cl)cc2)C1)N1CCOCC1", "note": "(stereo not drawn)", "hERG current change (%, negative = inhibition) at 1uM": 5.97}
{"smiles": "C/C(=N\\S(=O)(=O)c1ccc(C)cc1)N1CCN(S(=O)(=O)c2ccccc2)C1C(C)C", "note": "(stereo not drawn)", "hERG current change (%, negative = inhibition) at 1uM": -8.4}
{"smiles": "COC(=O)CN1C(c2ccc(Cl)cc2)=Nc2ccc(Cl)cc2C1c1ccccc1", "note": "(stereo not drawn)", "hERG current change (%, negative = inhibition) at 1uM": 14.7}
{"smiles": "CCOCC(=O)OCC(=O)Nc1cc(OC)c([N+](=O)[O-])cc1C", "hERG current change (%, negative = inhibition) at 1uM": 9.89}
{"smiles": "CCOC(=O)Cn1cnc2sc(C(=O)OC)c(C)c2c1=O", "hERG current change (%, negative = inhibition) at 1uM": 8.73}
{"smiles": "O=C(/C=C/c1ccc(Cl)cc1Cl)Nc1ccncc1", "hERG current change (%, negative = inhibition) at 1uM": 7.43}
{"smiles": "COc1ccc(OCC(O)CNS(=O)(=O)c2ccc(C)cc2)cc1", "note": "(stereo not drawn)", "hERG current change (%, negative = inhibition) at 1uM": 13.8}
{"smiles": "c1ccc(-c2ccc(CN3C[C@@H]4C(c5ccccc5)C5(c6ccccc6)CC4(C5)[C@H]3c3ccccc3)cc2)cc1", "note": "(stereo partly drawn)", "hERG current change (%, negative = inhibition) at 1uM": 1.07}
{"smiles": "CCN1CCN(c2nc3ccccc3nc2C(C#N)S(=O)(=O)c2ccc(C)c(C)c2)CC1", "note": "(stereo not drawn)", "hERG current change (%, negative = inhibition) at 1uM": -13}
{"smiles": "C=CCn1c(O)c(C(C)=NCc2cccnc2)c(=O)[nH]c1=O", "hERG current change (%, negative = inhibition) at 1uM": -9.23}
{"smiles": "CS(=O)(=O)N(CC(=O)NCc1ccncc1)c1cc(Cl)cc(Cl)c1", "hERG current change (%, negative = inhibition) at 1uM": -4.53}
{"smiles": "CCCCOC(=O)Nc1nc(CC(=O)OCC)cs1", "hERG current change (%, negative = inhibition) at 1uM": -4.28}
{"smiles": "O=C(C1CCC1)N1CCc2cc(S(=O)(=O)NCCN3CCN(c4ccccc4F)CC3)ccc21", "hERG current change (%, negative = inhibition) at 1uM": 3.71}
{"smiles": "Cc1ccnc(NS(=O)(=O)c2ccc(N3C(=O)c4c(Cl)c(Cl)c(Cl)c(Cl)c4C3=O)cc2)n1", "hERG current change (%, negative = inhibition) at 1uM": 7.76}
{"smiles": "Cc1[nH]n(-c2ccccc2)c(=O)c1/C=N/N(C)c1ccccc1", "hERG current change (%, negative = inhibition) at 1uM": 9.89}
{"smiles": "COc1ccc(-c2csc3ncn(-c4cccc(C)c4)c(=O)c23)cc1OC", "hERG current change (%, negative = inhibition) at 1uM": 11.8}
{"smiles": "COc1ccc(/C=C2/NC(=O)N(CC(=O)Nc3cccc(C)c3)C2=O)cc1O", "hERG current change (%, negative = inhibition) at 1uM": 7.29}
{"smiles": "COc1ccc(C(=O)OCC(=O)NC2CCCC2)c(OC)c1", "hERG current change (%, negative = inhibition) at 1uM": 14.7}
